# Source: PubChem BioAssay AID686971 (National Center for Advancing Translational Sciences (NCATS), 2013)
# Among all 360,000 compounds or so, about 7,500 (2.1%) were called active. Inconclusive results, whose numbers are uncertain, are shown with a selection of clear calls. Calls come from the whole dose curve; as a rule, active = well fitted cell-killing curve with a large enough effect; inconclusive = small, poorly fitted or top-dose-only effect, or effect the other way, or another doubt; inactive = no such curve, though single readings can be large or run the other way. Potencies of inconclusive entries are left out as doubtful fits.
# Assay: qHTS for induction of synthetic lethality in tumor cells producing 2HG: qHTS for the HT-1080-IDH1KD cell line
# Conditions: HT-1080 IDH1 knockdown viability, ATP luminescence, 48 h; activity, negative = toxicity: at 46.1 µM (top of the series) unless noted
# Text: Unbiased genomic sequencing for 22 glioma genomes found recurrent mutation of IDH1 on chromosome 2q33, a gene encoding the cytosolic isoform of IIDH1 associated with the tri-carboxylic acid cycle (TCA) that catalyzes the oxidative decarboxylation of isocitrate, yielding alpha-ketoglutarate and CO2 via NADP+ to NADPH conversion. Subsequent studies confirmed the recurrent IDH mutations in up to 70% of secondary gliomas and in 10% of AML cases. In addition, the somatic mutation of cancer-associated IDH1 is a point mutation resulting in various amino-acid substituents at Arginine132 (IDH1 R132), a key residue found in the enzyme's active site that when mutated, results in the loss-of-function in metabolizing isocitrate but confers a gain-of-function to produce the oncometabolite 2-hydroxyglutarate (2HG). This in effect defines IDH1 as an oncogene and provides an extraordinary opportunity to discover chemical probes against mutant IDH1 that may translate into much needed new therapies for glioma and AML patients.
# This assay aims to perform a synthetic-lethal screen for chemical probes specific for 2HG-producing tumor cells using matched paired cell lines (1) HT-1080-NT fibrosarcoma cell line that overproduces 2HG and (2) HT-1080-IDH1KD cell line which has IDH1 expression knocked-down. Desirable compounds are toxic to the NT fibrosarcoma cell line but not to the IDH1KD cell line. The data in this AID corresponds to the results of the qHTS against the HT-1080 IDH1KD cell line.
# [1] Dang L, Jin S, Su SM. IDH mutations in glioma and acute myeloid leukemia. Trends of Mol Med. 2010; 16(9): 387-97.
# [2] Dang L et al. Cancer-associated IDH1 mutations produce 2-hydroxyglutarate. Nature. 2010; 465(7300):966.
# Molecular Libraries Probe Production Centers Network [MLPCN]
# NIH Chemical Genomics Center [NCGC]
# Assay Submitter (PI): Lenny Dang Ph.D., Agios Pharmaceuticals
# Suspensions of trypsinized HT-1080-IDH1KD cells were dispensed into white, tissue culture-treated, solid 1536-well plates at 5uL/well (750 cells/well final concentration) in RPMI medium supplemented with 5% FBS. Plates were incubated at 37 degrees C for 2 hours, after which 23 nL of compounds or DMSO were delivered to each well using a pin tool. Plates were then incubated at 37 degrees C for an additional 48 hours. CellTiter-Glo viability reagent (Promega) was dispensed into wells (2.5uL/well) and incubated at room temperature for 10 minutes. The plates were measured on a PerkinElmer ViewLux plate reader for luminescent signal (clear filter, 1 sec exp.). DMSO-treated control wells and media-only (no cells) control wells were used to normalize %Activity of identified toxic compounds; DMSO-treated wells corresponded to 0%Activity (100% viability), while media-only controls were used to normalize 100%Activity (0% viability). To minimize variability between cell lines, both HT-1080-NT and HT-1080-IDH1KD lines were dispensed and treated with identical compound series in single batches.
# Concentration-response curves were fitted to the signals arising from the resulting luminescence. The concentration-effect curves were then classified based on curve quality (r2), response magnitude and degree of measured activity, and compounds were subsequently categorized based on their curve class.
# Potency is the fitted concentration of half-maximal effect; tags give direction and shape of the fitted curve.
Structure (SMILES),Potency,"activity, negative = toxicity"
O=C1Oc2ccccc2C(=O)/C1=C\N1CCN(c2ccccc2)CC1,"inconclusive [cytotoxic, single point]",–
COc1cc(Br)cc(/C=N/c2ncn[nH]2)c1O,active: 15.8 µM,–
COc1ccc(C2(OC)Oc3cc(OC)ccc3C(=O)C2(O)OC)cc1 (centres undefined),"inconclusive [cytotoxic, partial curve]",–
Cc1nn(Cc2cccc(F)c2)c(C)c1NC(=O)c1ccc(COc2ccccc2Cl)cc1,"inconclusive [cytotoxic, single point]",–
COC(=O)c1ccc(NC(=S)NC2CCCCC2)cc1,"inconclusive [cytotoxic, single point]",–
COc1ccccc1NC(=O)CN1CCN(CC(=O)Nc2ccc(Cl)c(C(F)(F)F)c2)CC1,active: 23.1 µM,–
Cc1ccc(O)c(-c2cc(-c3ccccc3F)[nH]n2)c1,active: 20.6 µM,–
O=C(Nc1ccc2ccccc2c1)C(c1ccc(C(F)(F)F)cc1)n1c(=O)c(-c2cc3ccccc3[nH]2)nc2ccccc21 (centres undefined),active: 16.4 µM,–
N#Cc1ccc(-c2ccc(F)cc2)nc1Oc1ccccc1,"inconclusive [cytotoxic, single point]",–
COc1cc2c(cc1NC(=S)NC(=O)/C=C/c1ccco1)oc1ccccc12,"inconclusive [rising, partial curve]",–
Cn1cccc1C1C(C#N)=C(N)OC2=C1C(=O)CC(C)(C)C2 (centres undefined),–,inactive: 2.18%
CCN(Cc1ccccc1)C(=O)c1ccc(NC(=O)c2ccc(OC)cc2)cc1,–,inactive: -0.472%
O=C1CCN(S(=O)(=O)c2ccc(Cl)cc2)CCN1,"inconclusive [rising, single point]",–
CSc1ccc(OC2CCCCC2NS(=O)(=O)c2ccc(Cl)cc2)cc1 (centres undefined),"inconclusive [cytotoxic, single point]",–
CC(C)(C)c1ccc(OCCCC(=O)NNC(=O)c2ccccc2O)cc1,"inconclusive [cytotoxic, single point]",–
COc1ccc(C)cc1NC(=O)C(Sc1nnc(-c2ccncc2)n1-c1ccc(Cl)cc1)c1ccccc1 (centres undefined),"inconclusive [cytotoxic, partial curve, poor fit]",–
COc1ccccc1CCn1cnc(C)c1CC(C)C,–,inconclusive: -29.9% [cytotoxic]
O=C1Nc2ccccc2N=C(c2ccc3c(c2)OCO3)C1N(C(=O)c1ccc2ccccc2c1)C1CC1 (centres undefined),"inconclusive [cytotoxic, single point]",–
CCOC(=O)C1=CCN(S(=O)(=O)c2ccccc2F)C1c1cccc(F)c1 (centres undefined),–,inactive: -10.3%
CCOc1ccc(OCc2ccc(C(=O)NN=Cc3ccc[nH]3)cc2)cc1,"inconclusive [cytotoxic, full curve]",–
Cc1ccc(OCCN2C(=O)c3ccccc3C2=O)c([N+](=O)[O-])c1,"inconclusive [rising, single point]",–
O=S(=O)([N-]c1nc2ccccc2nc1-[n+]1ccc(Cc2ccccc2)cc1)c1ccc(Br)s1,active: 20.6 µM,–
CC(=O)Oc1ccc(N2C(=O)C3C(C2=O)C(C(=O)c2ccc(Cl)cc2)N2CCCC32)cc1 (centres undefined),active: 23.1 µM,–

Structure (SMILES),Potency,"activity, negative = toxicity"
Cc1ccc2nc(N(CCCN(C)C)C(=O)c3ccc(S(=O)(=O)N4CCCCCC4)cc3)sc2c1,active: 18.4 µM,–
Cc1nc2c(N=Nc3ccccc3F)c(N)nn2c(N)c1C#N,–,inconclusive: -0.375% [cytotoxic]
c1ccc2c(c1)oc1c(Nc3ccc(CN4CCOCC4)cc3)ncnc12,"inconclusive [cytotoxic, single point]",–
COc1ccc(S(=O)(=O)N(CC(=O)NN=C2CCN(C)CC2)c2ccc(C)cc2)cc1OC,"inconclusive [rising, single point]",–
Cc1ccc(-n2cccn2)c(CN2CCCC(C(=O)c3ccc4c(c3)OCO4)C2)c1 (centres undefined),"inconclusive [cytotoxic, partial curve]",–
COc1ccc(C2Oc3ccccc3C3=C2C(c2cccs2)n2ncnc2N3)cc1 (centres undefined),active: 8.2 µM,–
O=C(NCc1cccnc1)c1cc(C2CCCCN2C(=O)OCc2ccccc2)on1 (centres undefined),–,inactive: -3.31%
Clc1c(OCCCn2ccnc2)ccc2ccccc12,"inconclusive [cytotoxic, single point]",–
C=CC[C@@H](CC(=O)N(CCO)Cc1ccccc1)C(=O)N[C@@H](COC(=O)[C@@H](CC=C)CC(=O)OC(C)(C)C)Cc1c[nH]c2ccccc12,"inconclusive [cytotoxic, single point]",–
COc1ccc(NC(=O)Cn2nnc(C(=O)NCc3cccs3)c2N)cc1,"inconclusive [cytotoxic, single point]",–
O=C(Nc1ccc2nc([C@H]3C[C@H](O)[C@@H](CO)O3)[nH]c2c1)NC(c1ccccc1)c1ccccc1,–,inactive: -7.31%
COc1ccccc1NC(=S)NC(=O)/C=C/c1cccs1,"inconclusive [cytotoxic, single point]",–
CC(O)CNc1nc2sc3c(c2c(=O)n1CCc1ccccc1)CCCCC3 (centres undefined),"inconclusive [cytotoxic, single point]",–
COc1ccc(C(=O)NC(C(=O)NCc2ccccn2)C(C)C)cc1 (centres undefined),–,inactive: 0.706%
Cn1c(NN)nc2sc3c(c2c1=O)CC(C)(C)OC3,active: 12.6 µM,–
Cc1ccc(NC(=S)N2CCCC2)cc1,–,inactive: -4.21%
COc1ccccc1Oc1ccc(S(=O)(=O)Nc2cccnc2)cc1,"inconclusive [cytotoxic, single point]",–
COc1ccc(CCNC(=O)C2CCN(S(=O)(=O)c3cccc4nonc34)CC2)cc1OC,"inconclusive [cytotoxic, single point]",–
O=C(Nc1cccc(F)c1)NC1(C(=O)NCC2CCCO2)CCCCC1 (centres undefined),–,inactive: 0.991%
COc1cccc(CN2CC(C(=O)N(C)CCCC3CCCC3)CCC2=O)c1 (centres undefined),–,inactive: -13.3%
COc1ccc(-n2nc(C(=O)NCC(=O)NCc3ccc(F)cc3)c3ccccc3c2=O)cc1OC,"inconclusive [cytotoxic, single point]",–
COc1ccc(CNC(=O)CSc2nnnn2Cc2ccccc2)cc1,"inconclusive [cytotoxic, single point]",–
CC(=O)c1ccc(NC(=O)C(C)NCc2ccccc2Cl)cc1 (centres undefined),"inconclusive [rising, single point]",–

Structure (SMILES),Potency,"activity, negative = toxicity"
COc1ccc(OCC(=O)Nc2ccc3c(c2)nc(CCN2CCOCC2)n3C)cc1,–,inactive: 0.113%
OCc1cccc(-c2cnc3c(Nc4cccc(OC(F)(F)C(F)F)c4)nccn23)c1,"inconclusive [cytotoxic, single point]",–
CCCCOC(=O)c1ccc(NC(=O)CN2C(=O)NC3(CCCCCC3)C2=O)cc1,"inconclusive [cytotoxic, single point]",–
CCOC(=O)c1cc([N+](=O)[O-])cc([N+](=O)[O-])c1Sc1ncnc2nc[nH]c12,active: 4.61 µM,–
Cc1ccc(Cn2nc(C)cc2C(=O)Nc2ccccc2Cl)cc1,"inconclusive [cytotoxic, partial curve]",–
CN(CC(O)COc1ccc(OCC(O)CN(C)C2CCCCC2)cc1)C1CCCCC1 (centres undefined),"inconclusive [cytotoxic, single point]",–
Cc1ccc(NC(=O)CN(C)S(=O)(=O)c2cccs2)c(Br)c1,"inconclusive [cytotoxic, partial curve]",–
Cc1ccc(Nc2nc3ccccc3s2)c(C)c1,–,inactive: -22.3%
CCc1sc(C(=O)Nc2nc(-c3ccccn3)cs2)cc1C,"inconclusive [cytotoxic, full curve]",–
CC(=O)c1cccc(Nc2nc(-c3cccnc3)cs2)c1,"inconclusive [cytotoxic, single point]",–
CC(C)CC1C(=O)N(Cc2cn(Cc3ccco3)nn2)CCS(=O)(=O)N1Cc1ccc(-c2ccccc2)cc1 (centres undefined),"inconclusive [cytotoxic, single point]",–
CCOC(=O)c1cccc(NC(=O)CSc2nnc(CNc3ccc(C)cc3)n2CC)c1,"inconclusive [cytotoxic, single point]",–
CC(=O)Nc1ccc(C(=O)OCc2ccc(Cl)cc2)cc1,"inconclusive [cytotoxic, single point]",–
O=C(Nc1ccccc1O)c1cccc(NC(=O)c2ccco2)c1,–,inactive: -9.52%
Cc1nn(-c2ccccc2)c2sc(C(=O)N(CC(=O)NC(C)(C)C)Cc3ccco3)cc12,"inconclusive [cytotoxic, partial curve]",–
O=C(NNC1=C(C(=O)C(F)(F)F)CCC1)c1cccc(O)c1,active: 18.4 µM,–
CCCNC(=O)C1(C)CCCN(C(=O)c2cc(C)nn2C(C)(C)C)C1 (centres undefined),"inconclusive [rising, single point]",–
O=C(CN1CCCC1)NC(c1ccccc1)c1ccccc1,"inconclusive [cytotoxic, single point]",–
Cc1ccc(NC2=C/C(=N\S(=O)(=O)c3cccs3)c3ccccc3C2=O)c(C)c1,active: 6.51 µM,–
O=c1cc(-c2ccc(O)cc2)oc2cc(O)cc(O)c12,"inconclusive [cytotoxic, single point]",–
C=CCN1C(=O)C2(OCCCO2)c2cc(Cl)ccc21,–,inactive: -7.66%
Cc1ccc(CNC(=O)C2CCN(c3nc(C)cc(C)n3)CC2)cc1,"inconclusive [rising, partial curve, poor fit]",–
C=C(C)c1ccc(C(C)(C)NC(=O)N(Cc2ccccc2)Cc2ccco2)cc1,"inconclusive [cytotoxic, single point]",–
